According to the antibiotic and cytotoxicity screens of Wong et al. (2023):
The list shows a part of the results.

Assays:
[1] = tested on: HSkMC (human skeletal muscle cells); assay: cytotoxicity call (relative viability < 0.9); settings: 10 µM
[2] = tested on: HepG2; assay: cytotoxicity call (relative viability < 0.9); settings: 10 µM
[3] = tested on: S. aureus RN4220; assay: growth inhibition call (relative growth <= 0.2); settings: 50 µM

| SMILES | cytotoxicity call [1] | cytotoxicity call [2] | growth inhibition call [3] |
| --- | --- | --- | --- |
| C[C@@H]1CN([C@H](C)CO)C(=O)Cc2cc(NS(=O)(=O)c3cn(C)cn3)ccc2O[C@H]1CN(C)S(C)(=O)=O | inactive | inactive | inactive |
| CCCN(C)C[C@H]1OCCCC[C@H](C)Oc2ccc(NC(=O)Nc3ccc(F)cc3)cc2C(=O)N([C@@H](C)CO)C[C@H]1C | inactive | inactive | inactive |
| O=C(O)c1ccc(-c2ccco2)s1 | inactive | inactive | inactive |
| Cc1ccc(S(=O)(=O)Nc2cccc3c2O[C@H](CN(C)C(=O)Nc2ccc(C(F)(F)F)cc2)[C@H](C)CN([C@H](C)CO)C3=O)cc1 | inactive | inactive | inactive |
| C[C@H](CO)N1C[C@H](C)[C@@H](CN(C)C(=O)Nc2ccccc2)OCCCC[C@H](C)Oc2ccc(NC(=O)C3CCCCC3)cc2C1=O | inactive | inactive | inactive |
| Cc1noc(C)c1S(=O)(=O)N(C)C[C@H]1Oc2ccc(NC(=O)CCCN(C)C)cc2CC(=O)N([C@H](C)CO)C[C@@H]1C | inactive | inactive | inactive |
| COc1ccc(NC(=O)Nc2ccc3c(c2)C(=O)N([C@H](C)CO)C[C@H](C)[C@@H](CN(C)S(=O)(=O)c2c(C)noc2C)OCCCC[C@H](C)O3)cc1 | inactive | inactive | inactive |
| C[C@@H]1CN([C@H](C)CO)C(=O)c2cc(NC(=O)CCN3CCOCC3)ccc2O[C@H]1CN(C)Cc1ccncc1 | inactive | inactive | inactive |
| C[C@@H]1CCCCO[C@H](CN(C)C(=O)CCC(F)(F)F)[C@H](C)CN([C@@H](C)CO)C(=O)c2cc(NS(=O)(=O)c3ccc(Cl)cc3)ccc2O1 | inactive | inactive | inactive |
| C[C@@H]1CN([C@@H](C)CO)C(=O)c2cccc(NC(=O)CCCCCC(=O)Nc3ccccc3N)c2O[C@H]1CN(C)Cc1ccccc1 | inactive | inactive | inactive |
| CC(C)NC(=O)N(C)C[C@H]1OCc2cnnn2CCCC(=O)N([C@H](C)CO)C[C@@H]1C | inactive | inactive | inactive |
| C[C@@H]1CN([C@@H](C)CO)C(=O)c2cccc(NC(=O)Nc3ccc(C(F)(F)F)cc3)c2O[C@@H]1CN(C)Cc1ccc(C(F)(F)F)cc1 | active | inactive | inactive |
| CC(=O)NCCCC[C@@H]1NC(=O)[C@@H]2C[C@H](C(=O)O)[C@H](c3ccc(O)cc3)N2C1=O | inactive | inactive | inactive |
| C/C(Cc1ncn(-c2cc(C)on2)n1)=N\O | inactive | inactive | inactive |
| C[C@H](CO)N1C[C@H](C)[C@@H](CN(C)C(=O)Nc2ccc(C(F)(F)F)cc2)OCCCC[C@H](C)Oc2ccc(NC(=O)Nc3cccc4ccccc34)cc2C1=O | inactive | inactive | inactive |
| C[C@@H]1CCCCO[C@H](CN(C)S(=O)(=O)c2cn(C)cn2)[C@@H](C)CN([C@H](C)CO)C(=O)c2cc(NC(=O)CCCN(C)C)ccc2O1 | inactive | inactive | inactive |
| COc1cccc(S(=O)(=O)Nc2ccc3c(c2)[C@H]2C[C@H](CC(=O)NCc4cccc(F)c4)O[C@H](CO)[C@H]2O3)c1 | inactive | inactive | inactive |
| Cn1ccc(CO)n1 | inactive | inactive | inactive |
| O=C(C[C@H]1CC=CC[C@H](Cc2ccc(F)cc2)C(=O)OC[C@H](Cc2c[nH]c3ccccc23)NC1=O)NCCO | inactive | inactive | inactive |
| COc1ccc(NC(=O)Nc2ccc3c(c2)C(=O)N([C@@H](C)CO)C[C@@H](C)[C@H](CN(C)S(=O)(=O)c2ccc(F)cc2)OCCCC[C@@H](C)O3)cc1 | inactive | inactive | inactive |
| COc1ccc(S(=O)(=O)N(C)C[C@@H]2Oc3ccc(NS(C)(=O)=O)cc3C(=O)N([C@H](C)CO)C[C@@H]2C)cc1 | inactive | inactive | inactive |
| COCC(=O)N1[C@H](C(=O)N2CCOCC2)[C@@H](CO)[C@@H]2Cn3c(ccc(C4=CCCCC4)c3=O)[C@@H]21 | inactive | inactive | inactive |
| CC(=O)N(C)C[C@@H]1Oc2cc(C#CCN(C)C)ccc2S(=O)(=O)N([C@H](C)CO)C[C@H]1C | inactive | inactive | inactive |
| O=C(C[C@@H]1C[C@H]2c3cc(NS(=O)(=O)c4ccc(F)cc4)ccc3O[C@H]2[C@@H](CO)O1)NCCc1ccccc1 | inactive | inactive | inactive |
| COC(=O)C[C@H]1CC[C@@H]2[C@H](COC[C@@H](O)CN2S(=O)(=O)c2cn(C)cn2)O1 | inactive | inactive | inactive |
| CNC[C@H]1OCCCC[C@@H](C)Oc2ccc(NC(=O)CCCN(C)C)cc2C(=O)N([C@H](C)CO)C[C@@H]1C | inactive | inactive | inactive |
| CO[C@H](CN(C)S(=O)(=O)c1ccc(C)cc1)[C@@H](C)CN([C@H](C)CO)S(=O)(=O)c1cccc(Cl)c1 | inactive | inactive | inactive |
| C[C@@H]1CN([C@H](C)CO)C(=O)c2cc(C#Cc3ccccc3F)cnc2O[C@@H]1CN(C)C(=O)Cc1ccncc1 | inactive | inactive | inactive |

| SMILES | cytotoxicity call [1] | cytotoxicity call [2] | growth inhibition call [3] |
| --- | --- | --- | --- |
| C[C@@H]1CN([C@H](C)CO)C(=O)c2cc(NC(=O)CCN3CCOCC3)ccc2O[C@@H]1CN(C)S(=O)(=O)c1cccs1 | inactive | inactive | inactive |
| Cc1ccc(S(=O)(=O)N(C)C[C@@H]2OCCCC[C@H](C)Oc3ccc(NC(=O)C4CCCCC4)cc3C(=O)N([C@H](C)CO)C[C@H]2C)cc1 | inactive | inactive | inactive |
| COc1ccc(S(=O)(=O)N(C)C[C@@H]2Oc3ncc(Br)cc3C(=O)N([C@H](C)CO)C[C@@H]2C)cc1 | inactive | inactive | inactive |
| Cc1ccc(S(=O)(=O)Nc2ccc3c(c2)CC(=O)N([C@@H](C)CO)C[C@H](C)[C@@H](CN(C)CC2CC2)O3)cc1 | inactive | inactive | inactive |
| C[C@H](CO)N1C[C@H](C)[C@H](CN(C)Cc2ccc(C(F)(F)F)cc2)Oc2ccc(NC(=O)Nc3ccccc3)cc2C1=O | inactive | active | inactive |
| C[C@H]1CN([C@@H](C)CO)C(=O)c2cc(NC(=O)Nc3ccc(C(F)(F)F)cc3)ccc2O[C@@H]1CN(C)Cc1ccc(C(=O)O)cc1 | inactive | inactive | inactive |
| C[C@@H]1CCCCO[C@H](CN(C)C(=O)Nc2ccc3c(c2)OCO3)[C@@H](C)CN([C@@H](C)CO)C(=O)c2cc(NS(=O)(=O)c3cccs3)ccc2O1 | inactive | inactive | inactive |
| COc1ccccc1S(=O)(=O)N1C[C@@H](O)COC[C@@H]2O[C@H](CC(=O)O)CC[C@H]21 | inactive | inactive | inactive |
| CO[C@@H]1CN(C)C(=O)c2cc(NC(=O)Nc3ccccc3)ccc2OC[C@@H](C)N(C(=O)CN(C)C)C[C@@H]1C | inactive | inactive | inactive |
| C/C=C/C1=C(C(=O)O)N2C(=O)[C@@H](NC(=O)[C@H](N)c3ccc(O)cc3)[C@H]2SC1 | inactive | inactive | active |
| O=S(=O)(c1cccc2cnccc12)N1CCCNCC1 | inactive | active | inactive |
| CC(C)=CCC/C(C)=C/CO | inactive | inactive | inactive |
| Cc1ccc(S(=O)(=O)N[C@@H]2CC[C@H](CC(=O)N3CCC(Cc4ccccc4)CC3)O[C@H]2CO)cc1 | inactive | inactive | inactive |
| COc1ccccc1CNC(=O)C[C@@H]1C[C@H]2c3cc(NC(=O)c4ccc5c(c4)OCO5)ccc3O[C@H]2[C@@H](CO)O1 | inactive | inactive | inactive |
| C[C@@H]1CN([C@@H](C)CO)C(=O)c2cc(NC(=O)C3CC3)ccc2O[C@@H]1CN(C)C(=O)NC1CCCCC1 | inactive | inactive | inactive |
| C[C@@H]1CCCCO[C@H](CN(C)C)[C@H](C)CN([C@@H](C)CO)C(=O)c2cc(NC(=O)Nc3cccc4ccccc34)ccc2O1 | inactive | inactive | inactive |
| C[C@@H]1CN([C@H](C)CO)C(=O)c2cc(NC(=O)CCN3CCOCC3)ccc2O[C@@H]1CN(C)Cc1ccc(C(=O)O)cc1 | inactive | inactive | inactive |
| C[C@H](CO)N1C[C@H](C)[C@H](CN(C)C(=O)Nc2ccc(C(F)(F)F)cc2)OCCCC[C@H](C)Oc2ccc(NS(=O)(=O)c3ccccc3)cc2C1=O | inactive | inactive | inactive |
| Cc1ccc(S(=O)(=O)Nc2ccc3c(c2)C(=O)N([C@H](C)CO)C[C@H](C)[C@H](CN(C)C(=O)Nc2ccc(C(F)(F)F)cc2)O3)cc1 | inactive | inactive | inactive |
| COc1ccc(CN(C)C[C@@H]2Oc3ccc(NS(C)(=O)=O)cc3C(=O)N([C@@H](C)CO)C[C@H]2C)cc1 | inactive | inactive | inactive |
| C[C@H](CO)N1C[C@H](C)[C@@H](CN(C)C(=O)Nc2ccc3c(c2)OCO3)Oc2ccc(NS(C)(=O)=O)cc2CC1=O | inactive | inactive | inactive |
| O=C(CCc1cn(-c2ccc(C[C@H]3C(=O)O[C@@H](Cc4ccccc4)[C@H]4C=C(/C=C/C5CC5)CN43)cc2)nn1)NO | inactive | inactive | inactive |
| CO[C@H]1[C@H](O)[C@@H](O)[C@@H](O)[C@H](O)[C@@H]1O | inactive | inactive | inactive |
| COc1ccc(CN(C)C[C@@H]2Oc3ccc(NC(=O)Cn4cnnn4)cc3CC(=O)N([C@H](C)CO)C[C@@H]2C)cc1 | inactive | inactive | inactive |
| COCCNC(=O)C[C@H]1CC[C@@H]2[C@H](COC[C@H](O)CN2C(=O)Nc2ccccc2OC)O1 | inactive | active | inactive |
| COc1ccc(NC(=O)N(C)C[C@H]2OCCCC[C@@H](C)Oc3ccc(NC(=O)c4ccccc4)cc3C(=O)N([C@H](C)CO)C[C@H]2C)cc1 | inactive | inactive | inactive |
| Cc1ccnc(NC(=O)Cn2cnc3c2c(=O)n(C)c(=O)n3C)c1 | inactive | inactive | inactive |
